Hit rate of the full screen: of about 310,000 compounds, about 2,200 (0.71%) showed an effect of 50% or more. Effects have a minus sign here. Some of the results follow.

The target in this experiment is human ether-à-go-go-related gene (hERG) potassium channel (human, UniProt Q12809). Description: primary screen, population patch clamp on CHO cells stably expressing hERG.
human ether-à-go-go-related gene (hERG) potassium channel, sequence (Q12809 whole entry, looked up): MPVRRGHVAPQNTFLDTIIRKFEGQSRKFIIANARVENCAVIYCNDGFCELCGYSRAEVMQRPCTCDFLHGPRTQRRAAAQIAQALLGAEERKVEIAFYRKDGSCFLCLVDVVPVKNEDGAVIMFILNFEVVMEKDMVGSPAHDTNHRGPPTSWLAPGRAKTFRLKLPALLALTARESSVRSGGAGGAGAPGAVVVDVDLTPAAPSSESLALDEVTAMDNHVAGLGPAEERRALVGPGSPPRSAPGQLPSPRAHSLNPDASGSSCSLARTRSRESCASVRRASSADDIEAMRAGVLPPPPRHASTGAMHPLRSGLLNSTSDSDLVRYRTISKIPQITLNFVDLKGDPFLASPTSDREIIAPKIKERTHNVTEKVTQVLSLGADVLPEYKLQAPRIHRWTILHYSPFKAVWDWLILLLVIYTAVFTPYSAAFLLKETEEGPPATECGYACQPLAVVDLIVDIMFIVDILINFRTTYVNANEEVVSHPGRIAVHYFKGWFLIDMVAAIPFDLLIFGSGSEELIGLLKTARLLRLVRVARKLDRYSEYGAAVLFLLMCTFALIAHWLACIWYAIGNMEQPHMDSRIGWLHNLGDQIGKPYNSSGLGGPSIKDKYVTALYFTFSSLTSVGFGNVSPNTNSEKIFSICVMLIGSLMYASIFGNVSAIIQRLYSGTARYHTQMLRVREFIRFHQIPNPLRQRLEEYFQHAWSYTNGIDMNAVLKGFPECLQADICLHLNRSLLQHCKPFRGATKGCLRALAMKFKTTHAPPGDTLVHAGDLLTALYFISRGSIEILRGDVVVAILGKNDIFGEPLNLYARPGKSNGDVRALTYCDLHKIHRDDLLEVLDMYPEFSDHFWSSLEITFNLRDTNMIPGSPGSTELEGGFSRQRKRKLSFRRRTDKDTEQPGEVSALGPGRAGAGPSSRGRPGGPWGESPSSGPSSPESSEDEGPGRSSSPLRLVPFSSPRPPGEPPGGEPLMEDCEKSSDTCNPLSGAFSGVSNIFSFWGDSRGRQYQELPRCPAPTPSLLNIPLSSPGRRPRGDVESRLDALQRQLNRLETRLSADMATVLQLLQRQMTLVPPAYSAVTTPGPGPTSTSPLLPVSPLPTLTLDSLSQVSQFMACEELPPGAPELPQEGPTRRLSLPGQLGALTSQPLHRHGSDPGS
Turning to `O=[N+]([O-])c1ccc(Cl)c2cccnc12`, the “hERG current change (%, negative = inhibition) at 1uM” value turned out to be 7.69%.

On to `COc1ccc2nc3oc(C(=O)Nc4ccc(OC)c(OC)c4)cc3cc2c1`, for which the “hERG current change (%, negative = inhibition) at 1uM” value worked out at 16%.

Turning to `FC(F)(F)c1ccc(Oc2ccc(Cl)cc2Br)nc1`, the “hERG current change (%, negative = inhibition) at 1uM” value was 19.6%.

`CC(=O)c1c(C)[nH]c(C(=O)OCC(=O)Nc2ncc(Cl)c(C)c2Cl)c1C`: the “hERG current change (%, negative = inhibition) at 1uM” value is -3.13%.

Take `CCc1ccc(N(CC(=O)NC(C)(C)C)C(=O)CCC(=O)Nc2ccccn2)cc1`: the “hERG current change (%, negative = inhibition) at 1uM” value is on record as 16.1%.

With `CCc1ccc2[nH]c(=O)c(C(c3nnnn3CC3CCCO3)N3CCN4CCCC4C3)cc2c1` (stereo not drawn), the “hERG current change (%, negative = inhibition) at 1uM” value is on record as 3.1%.

With `COC(=O)c1sccc1NC(=O)/C=C/c1ccc(Cl)cc1`, the “hERG current change (%, negative = inhibition) at 1uM” value was -1.17%.

With `O=S(=O)(c1cccc(F)c1)N1CCN(Cc2ccc3c(c2)OCO3)CC1`, the “hERG current change (%, negative = inhibition) at 1uM” value is -9.49%.

With `Cc1csc(=O)n1CCC(=O)OCc1nnc(-c2ccccc2)o1`, the “hERG current change (%, negative = inhibition) at 1uM” value came out at 3.1%.

Take `CCCCNC(=O)c1onc(CSc2ccc(F)cc2)c1C(=O)NCCCC`: the “hERG current change (%, negative = inhibition) at 1uM” value was 10.9%.

Consider `COc1ccc(C(=O)/C=C/c2ccccc2OC)c(OC(=O)c2ccc([N+](=O)[O-])cc2)c1`, for which the “hERG current change (%, negative = inhibition) at 1uM” value was 9.93%.

On to `COc1ccc(CC(=O)N2CCCc3ccccc32)cc1`, for which the “hERG current change (%, negative = inhibition) at 1uM” value is on record as 8.01%.

In the case of `CC(Sc1ccc2nnc(-c3ccc(F)cc3)n2n1)C(=O)O` (stereo not drawn), the “hERG current change (%, negative = inhibition) at 1uM” value amounted to 4.39%.

As for `COc1ccc(CNC(=O)C(C)NCc2ccccc2Cl)cc1.Cl` (stereo not drawn), the “hERG current change (%, negative = inhibition) at 1uM” value came to 10.5%.

`c1coc(-c2nnc(SCc3cn4ccccc4n3)o2)c1`: the “hERG current change (%, negative = inhibition) at 1uM” value is -2.53%.

Take `CNC(=S)N1CCN(c2nc3ccccc3s2)CC1`: the “hERG current change (%, negative = inhibition) at 1uM” value was 9.23%.

For `COc1ccc(S(=O)(=O)Nc2cccc(-c3ccc4nncn4n3)c2)c(OC)c1`, the “hERG current change (%, negative = inhibition) at 1uM” value is on record as -9.85%.

As to `COc1cc(OC)cc(C(=O)N[C@H](C(=O)OCC(=O)Nc2cccc(F)c2)C(C)C)c1`, the “hERG current change (%, negative = inhibition) at 1uM” value was found to be 3.74%.

Take `O=C(c1cccs1)N1CCCC(c2nc3c(nnn3Cc3ccccc3)c(=O)[nH]2)C1` (stereo not drawn): the “hERG current change (%, negative = inhibition) at 1uM” value was -6.64%.

Consider `COc1ccc(CNC(=O)CN2CCN(S(=O)(=O)c3ccccc3)CC2)cc1`, for which the “hERG current change (%, negative = inhibition) at 1uM” value is reported as 6.11%.

With `C/C(=N/OC(=O)c1ccc(C(F)(F)F)cc1)c1oc(C)nc1C`, the “hERG current change (%, negative = inhibition) at 1uM” value turned out to be 14.3%.

For `CCCCN(CCCC)C1=Nc2ccccc2N/C1=C(/C#N)C(=O)OCC`, the “hERG current change (%, negative = inhibition) at 1uM” value stood at 2.26%.

`COc1ccccc1/C=C/c1nc(S(=O)(=O)c2ccccc2)c(N2CCC(C(N)=O)CC2)o1`: the “hERG current change (%, negative = inhibition) at 1uM” value is given as 6.21%.

As for `CC(C)n1cnc2c(Nc3cccc(Cl)c3)nc(NCCCO)nc21`, the “hERG current change (%, negative = inhibition) at 1uM” value was 10.5%.

Turning to `Cn1cnnc1SCC(=O)NCCc1ccccc1`, the “hERG current change (%, negative = inhibition) at 1uM” value came out at 17.6%.

Regarding `COc1cc(NC(=O)c2ccc(C(=O)c3ccccc3)cc2)cc(OC)c1OC`, the “hERG current change (%, negative = inhibition) at 1uM” value came out at 13.5%.

Regarding `Cc1csc(NC(=O)CSc2nnc(Cc3cccn3C)n2CCc2ccccc2)n1`, the “hERG current change (%, negative = inhibition) at 1uM” value was found to be 3.72%.

Turning to `COc1cccc(CN(CC(=O)NC2CCCCC2)C(=O)c2csnn2)c1`, the “hERG current change (%, negative = inhibition) at 1uM” value came out at 12.9%.

Regarding `O=C(NNC(=S)Nc1ccc(Cl)cc1)c1ccccc1OC(F)F`, the “hERG current change (%, negative = inhibition) at 1uM” value worked out at 9.26%.

For the compound `NC(=O)C1CCN(C2CC(=O)N(Cc3ccc(N4CCCC4=O)cc3)C2=O)CC1` (stereo not drawn), the “hERG current change (%, negative = inhibition) at 1uM” value worked out at 8.17%.

As for `Cn1c(C(=O)NCCN2CCOCC2)cc2c(=O)n3ccccc3nc21`, the “hERG current change (%, negative = inhibition) at 1uM” value turned out to be 15%.

On to `CCOC(=O)c1c(NC(=O)/C=C/c2ccco2)sc(C)c1C`, for which the “hERG current change (%, negative = inhibition) at 1uM” value came out at 10.7%.

In the case of `Cc1nnc(SCC(=O)NC2CCCc3c2cnn3-c2ccc(F)cc2F)o1` (stereo not drawn), the “hERG current change (%, negative = inhibition) at 1uM” value is recorded as 11.7%.

Take `CN1CCN(S(=O)(=O)c2ccc(Cl)c3ccccc23)CC1`: the “hERG current change (%, negative = inhibition) at 1uM” value worked out at 13.6%.

Turning to `CC(CN1CCCCC1)OC(=O)c1ccc2c(c1)OCCO2.Cl` (stereo not drawn), the “hERG current change (%, negative = inhibition) at 1uM” value is on record as -2.94%.

Take `CNCCc1ccccc1`: the “hERG current change (%, negative = inhibition) at 1uM” value worked out at 18.3%.

As for `Cc1ccccc1NC(=S)NC(=O)/C=C/c1ccco1`, the “hERG current change (%, negative = inhibition) at 1uM” value came to 17.7%.

As to `FC(F)(F)c1cccc(N2CCN(Cc3cccnc3)CC2)c1`, the “hERG current change (%, negative = inhibition) at 1uM” value was 3.56%.

Consider `CCc1c(C)nc2ncnn2c1NCCc1ccc(OC)c(OC)c1`, for which the “hERG current change (%, negative = inhibition) at 1uM” value stood at 3.53%.

For `CC(C)(C)n1cc(C(=O)c2ccccc2)cc1-c1ccccc1`, the “hERG current change (%, negative = inhibition) at 1uM” value came to 7.6%.

For `CCC(=O)Nc1c(-c2cccs2)c(=O)c2ccccc2n1C`, the “hERG current change (%, negative = inhibition) at 1uM” value is on record as 8.86%.

Consider `Fc1cccc2sc(Nc3nnc(-c4ccccc4)o3)nc12`, for which the “hERG current change (%, negative = inhibition) at 1uM” value came out at 10.5%.

For the compound `CC(C)C[C@H](NC(=O)c1nc[nH]c1C(=O)NCc1ccccc1)C(=O)OCc1ccccc1`, the “hERG current change (%, negative = inhibition) at 1uM” value was -3.93%.

For `Cc1ccccc1OCc1nnc(SCC(=O)Nc2ccc3c(c2)oc2ccccc23)n1C`, the “hERG current change (%, negative = inhibition) at 1uM” value turned out to be 10.6%.

Consider `CC(C)Cc1nc(N2CCC(C(N)=O)CC2)c2nnn(Cc3ccccc3)c2n1`, for which the “hERG current change (%, negative = inhibition) at 1uM” value was found to be 24%.

Take `COc1ccc(Nc2c3c(nc4ccccc24)CCC3)cc1.Cl`: the “hERG current change (%, negative = inhibition) at 1uM” value is on record as -14.5%.

For the compound `Cc1c(C(=O)Nc2ccccn2)oc2ccc(Br)cc12`, the “hERG current change (%, negative = inhibition) at 1uM” value amounted to 3.65%.

In the case of `CCCc1cc(C(=O)N2CCCC(Nc3ccc(C)c(C)c3)C2)n(C)n1` (stereo not drawn), the “hERG current change (%, negative = inhibition) at 1uM” value stood at 9.28%.

Consider `COc1ccc(N2C(=O)C3CCCN3C2c2ccc(C)cc2)cc1` (stereo not drawn), for which the “hERG current change (%, negative = inhibition) at 1uM” value is given as 11.4%.

`COc1ccc(OC)c(NC(=O)C2C3CCC(C3=C(C)C)C2C(=O)O)c1` (stereo not drawn): the “hERG current change (%, negative = inhibition) at 1uM” value is 6.65%.

`CC(=O)c1c[nH]c2ccc(C)cc2c1=O`: the “hERG current change (%, negative = inhibition) at 1uM” value is recorded as -4.84%.

Turning to `O=C(c1nn(Cc2ccccc2)c(=O)c2ccccc12)N1CCc2ccccc2C1`, the “hERG current change (%, negative = inhibition) at 1uM” value was found to be 0.969%.

With `Cc1ccc(/C(O)=C/C(=O)C(=O)NNC(=O)C(O)(c2ccccc2)c2ccccc2)cc1`, the “hERG current change (%, negative = inhibition) at 1uM” value was found to be 7.97%.

`CC(CN1c2ccccc2Sc2ccccc21)N(C)C.Cl` (stereo not drawn): the “hERG current change (%, negative = inhibition) at 1uM” value is -5.31%.

Regarding `Cl.O=C(CNC1CCN(Cc2ccccc2)CC1)Nc1ccc(S(=O)(=O)N2CCCCC2)cc1`, the “hERG current change (%, negative = inhibition) at 1uM” value is listed as -14.6%.

With `Cc1cc(N2CCN(S(=O)(=O)c3ccc4ccccc4c3)CC2)n2ncnc2n1`, the “hERG current change (%, negative = inhibition) at 1uM” value is -48.4%.

As for `CNC(=O)C(NC(=O)Nc1ccc(C)cc1)C(C)(C)C` (stereo not drawn), the “hERG current change (%, negative = inhibition) at 1uM” value is reported as 7.58%.
